Source: PubChem BioAssay AID485344 (National Center for Advancing Translational Sciences (NCATS), 2010)
About 6,900 (2%) of roughly 340,000 compounds were called active. Cut-off read from the data, not from the text of the source: active = inhibition above about 30%; inactive = below that, where a call was filed. The entries are a selection whose mix differs from that of the whole data set. The source gives no active or inactive call for entries shown without one.

Molecular target: D(2) dopamine receptor (Homo sapiens) (UniProt P14416)
Test: HTS Assay for Allosteric Antagonists of the Human D2 Dopamine Receptor: Primary Screen for Antagonists; note: 0% is about no effect
Details: HEK293 TREx D2 cells, calcium flux, dopamine EC80; at 10 µM; stronger effect = higher value
Method in brief: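 Dopamine at EC80 is the agonist stimulus; test compounds precede it by 180 s. Calcium flux read kinetically in a force-coupled, inducible HEK293 T-REx D2 cell line.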

UniProt P14416, sequence (P14416 whole entry, looked up): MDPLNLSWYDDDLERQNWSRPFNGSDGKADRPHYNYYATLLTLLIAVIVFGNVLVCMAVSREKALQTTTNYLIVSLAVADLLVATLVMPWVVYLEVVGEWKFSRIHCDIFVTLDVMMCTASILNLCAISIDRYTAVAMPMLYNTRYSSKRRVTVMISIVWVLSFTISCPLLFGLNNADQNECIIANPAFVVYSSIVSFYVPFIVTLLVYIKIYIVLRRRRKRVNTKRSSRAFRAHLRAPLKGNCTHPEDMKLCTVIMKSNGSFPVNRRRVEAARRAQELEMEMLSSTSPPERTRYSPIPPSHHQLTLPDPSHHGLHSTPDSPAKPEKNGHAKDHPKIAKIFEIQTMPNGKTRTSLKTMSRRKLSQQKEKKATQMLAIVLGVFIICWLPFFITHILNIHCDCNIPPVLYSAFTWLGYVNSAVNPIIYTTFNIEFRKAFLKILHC

SMILES	inhibition
Cn1nnnc1SCCNCc1cc(Br)ccc1OCc1ccccc1Cl	-15.7%
Cc1ccc(C(=O)Nc2cccc3cccnc23)cc1Cl	-20.2%
COc1cccc(OC)c1C(=O)NCCc1csc(-c2ccc(Cl)cc2)n1	-21%
COC(=O)c1c(-c2cccs2)csc1NC(=O)COc1ccc(C)cc1	16.8%
Cc1cccc2c1-c1sc(C(=O)N(C)c3cccc(Cl)c3)cc1CO2	3.63%
COc1ccc(C(CC(=O)Nc2ccc(C(C)=O)cc2)N2Cc3ccccc3C2=O)cc1 (configuration not stated)	8.35%
O=C(c1ccc2c(c1)N(Cc1cccc(F)c1)C(=O)c1ccccc1S2)N1CCCC1	1.7%
CC(C)c1cnc2c(c1SCC(=O)NCc1ccccc1Cl)c(=O)n(C)c(=O)n2C	-17.8%
Cc1ccc(CN2C(=O)c3ccccc3CC2(C)C(=O)NC2CCCCC2)cc1 (configuration not stated)	-1.99%
COc1ccc(NC(=O)NC2COc3ccccc3C2)cc1Cl (configuration not stated)	7.18%
Cc1cccc(N2CCN(C(=O)c3noc4c3COc3ccc(C)cc3-4)CC2C)c1 (configuration not stated)	-6.24%
CCOc1ccccc1C(=O)NC1(C(F)(F)F)C(=O)Nc2c1c(=O)[nH]c(=O)n2-c1ccc(F)cc1 (configuration not stated)	7.11%
CSc1ccc(CCNC(=O)CCc2c(C)nc3ncnn3c2C)cc1	3.32%
CCOc1ccccc1NS(=O)(=O)c1ccc2c(c1)oc(=O)n2C	-21.6%
CCc1cc2c(cc3c(=O)n(CCCC(=O)NCc4cccc(Cl)c4)ncn32)s1	13.2%
O=C(CCSCc1ccccc1Cl)NCc1ccc(F)cc1Cl	5.3%
COc1ccccc1N1CCN(C(=O)c2c(C)oc3ncn(C)c(=O)c23)CC1	-9.86%
Cc1cc2c(n1-c1ccc(C(=O)NCc3ccccc3Cl)cc1)CCCC2	11%
O=C(CN1C(=O)CCn2nc(-c3ccccc3)cc21)NCc1ccc(Cl)cc1	4.27%
Cc1cccc(CCNC(=O)c2cc3c(=O)n(C)c4ccccc4c3n2C)c1	15%
O=C(CCn1cccn1)Nc1ccc(Br)cc1F	4.38%
CCOC(=O)CSc1nc2ccc(NC(=O)c3cccc(F)c3)cc2s1	-11.6%
COc1ccc(CNC(=O)c2ccc3c(c2)N(Cc2c(F)cccc2Cl)C(=O)CS3)cc1	-11.3%
O=c1c(NCc2cccs2)nccn1-c1ccc(F)cc1	4.88%
Cc1nc2ccccc2n1CCc1nc2c3ccccc3nc(SCc3ccc(C#N)cc3)n2n1	26.8%

SMILES	inhibition
COc1cccc(NC(=O)CN(CCc2ccccc2)S(=O)(=O)c2ccc(Cl)cc2)c1	-8.6%
Cc1cccc(-c2nc3c4ccccc4nc(NCCc4ccccc4)n3n2)c1	-6.11%
O=S(=O)(NCc1nc2cccnc2n1Cc1ccccc1Cl)c1ccc2c(c1)CCCC2	-9.69%
CCOc1ccc(NS(=O)(=O)c2ccc3[nH]c4c(c3c2)CCCCC4)cc1	10%
O=C(COCc1cc(-c2ccc(F)cc2)on1)Nc1cc(F)ccc1F	5.21%
CCOc1ccc(S(=O)(=O)NCCc2c(C)[nH]c3c(Cl)cccc23)cc1C	18.2%
CCOC(=O)c1cc(C)nc(SC)c1C#N	active: 30.7%
CC(C)N(C(=O)Cn1cc(S(=O)(=O)Cc2ccc(Br)cc2)c2ccccc21)C(C)C	-8.04%
O=C(c1ccc(F)cc1)N1CCC(c2nc3ccccc3s2)CC1	8.46%
Cc1ccc(CNC(=O)c2cc(-c3ccc(C)cc3)nc3n[nH]c(-c4cccc([N+](=O)[O-])c4)c23)cc1	-9.56%
COc1ccc(NC2=C(c3ccccc3)C(=O)c3ccccc32)cc1Cl	-11.8%
CC1CCN(S(=O)(=O)c2ccc3c(c2)N(CC(=O)NCCCN2CCCCC2)C(=O)CS3)CC1	8.28%
Cc1cc(C)c(NC(=O)Cn2c(=O)n(CCC(=O)NCc3ccccc3Cl)c(=O)c3sccc32)c(C)c1	4.55%
O=C(Nc1nc2ccc(F)cc2s1)c1nc(S(=O)(=O)Cc2ccccc2F)ncc1Cl	-27.7%
COc1ccc(C(=O)Nc2ccc3nc(SCC(=O)N(C)c4ccccc4)sc3c2)cc1	4.6%
CSc1ncc(C(=O)NCc2ccc(C)cc2)c(C)n1	-18.8%
O=C(CSc1cn(CCNC(=O)c2cccc(C(F)(F)F)c2)c2ccccc12)Nc1ccc2c(c1)OCCO2	-11.3%
O=C(Nc1ccc2c(c1)C(=O)NC2=O)c1ccc(S(=O)(=O)N2CCCC2)cc1	active: 30.8%
Cc1ccc(Cl)cc1N1CCN(C(=O)CSc2cc(=O)n(C)c3ccccc23)CC1	2.21%
Cc1cccc(CC(=O)Nc2ccc3nc(N4CCC(C)CC4)cc(C)c3c2)c1	-11.6%
CC1=C(C(=O)Nc2cc(Cl)ccc2C)C(c2sccc2C)n2ncnc2N1 (configuration not stated)	11.4%
CCc1cccc(-n2c(=O)c3cccnc3n2CC(=O)NCc2ccc(C)cc2)c1	-5%
O=C(CCCCCn1c(=O)c2sccc2n(CC(=O)Nc2cc(C(F)(F)F)ccc2Cl)c1=O)NCc1ccccc1Cl	-1.69%
Cc1ccc(NC(=O)c2cc3ccccn3n2)cc1F	-7.2%
Cc1ccc(NC(=O)Cn2cnc3onc(-c4ccc(F)cc4)c3c2=O)c(Cl)c1	3.91%

SMILES	inhibition
O=C(CN1C(=O)C2(SCC(=O)N2c2cccc(Cl)c2)c2ccccc21)NCc1ccccc1 (configuration not stated)	-4.93%
O=C(CCN1C(=O)c2ccccc2S1(=O)=O)N1CCN(c2ccc(F)cc2)CC1	active: 32.8%
CC(C)(C)c1ccc(OCC(=O)NCC2(N3CCOCC3)CCCCC2)cc1	-19.7%
Cc1nc(N)sc1C(=O)N/N=C/c1ccccc1[N+](=O)[O-]	active: 33%
COc1ccc(NC(=O)CCCn2c(=O)c3cccn3c3cccnc32)cc1Cl	-0.786%
CCOc1ccccc1CNC(=O)c1oc2c(c1C)-c1[nH]ncc1CC2	17.3%
CCCN(CCC)C(=O)Cn1c(=O)n(CCCCCC(=O)NCc2ccc3c(c2)OCO3)c(=O)c2sccc21	-6.48%
CCOC(=O)c1c(NC(=O)c2cc(OC)c(OC)c(OC)c2)sc2c1CCCC2	4.38%
Cc1ccc(C)n1-c1nnc(N2CCCC(C(=O)Nc3ccccc3Br)C2)s1 (configuration not stated)	4.72%
COc1ccccc1-c1noc(CCCC(=O)Nc2cccc(C(F)(F)F)c2)n1	3.8%
O=[N+]([O-])c1ccccc1/C=C/CN1CCN(Cc2ccc3c(c2)OCO3)CC1	active: 31.5%
O=C(NNc1nc2ccc(F)cc2s1)c1cccc(F)c1	active: 40.7%
COC(=O)C(C)n1cnc2c(nnn2-c2ccccc2)c1=O (configuration not stated)	active: 30.5%
CC(=O)Nc1ccc(Nc2ncnc3c2cnn3C)cc1	10.5%
Cc1ccccc1CSc1nc(-c2cccc(F)c2)nc2c1Cc1c(CO)cnc(C)c1O2	14.2%
COc1ccc(OC)c(CNC(=O)c2nn(C)c3c2CS(=O)(=O)c2ccccc2-3)c1	-8.51%
CN(C)C(=O)c1ccc2c(c1)N(CC(=O)NCc1ccccc1Cl)C(=O)C1CCCCN21 (configuration not stated)	18%
CCN(C(=O)CSc1nc(-c2ccccc2)no1)c1ccccc1	-2.6%
CCOc1cc(CNC(=O)c2ccc3nc(C(C)C)oc3c2)cc(OCC)c1OCC	1.7%
O=C(Cn1c(=O)n(-c2ccccc2)c(=O)c2ccc(C(=O)NCc3ccc4c(c3)OCO4)cc21)Nc1ccc(Br)cc1	-16.6%
Cc1ccc(C)c(N2CCN(C(=O)c3cc4c(=O)oc5ccccc5c4s3)CC2)c1	6.91%
CCCCN(CC)C(=O)c1nn(-c2ccc(OC)cc2)c(=O)c2c1c1ccccc1n2C	-14.7%
COc1ccc(OC)c(CNC(=O)c2ccc3c(c2)c(C)c(C)n3C)c1	6.9%
O=C(CSc1nc2ncccc2o1)Nc1cccc(C(F)(F)F)c1	0.0872%
CCS(=O)(=O)c1oc(-c2ccc(F)cc2)nc1S(=O)(=O)c1ccccc1	-7.09%

SMILES	inhibition
Cc1nc(SCC(=O)Nc2nsc(-c3ccc(C(C)(C)C)cc3)n2)c2c3c(sc2n1)CCCC3	-11.9%
Cc1ccc(OCCCCN2CCC(C)CC2)c(Br)c1	active: 107%
COc1ccc(N2CCN(S(=O)(=O)CCNC(=O)Cc3ccc(OC)c(OC)c3)CC2)cc1	-6.02%
COc1ccc(N2CCN(C(=O)CN3C(=O)COc4ccc(S(=O)(=O)N5CCC(C)CC5)cc43)CC2)cc1	-11.1%
O=C(c1cnc2c(c1)COc1ccc(Cl)cc1-2)c1ccccc1O	3.48%
COc1ccc(N2CC(NC(=O)C3CCCCC3)CC2=O)cc1OC (configuration not stated)	-20.6%
Clc1ccccc1CSc1nnc(C2CCNCC2)o1	-2.17%
CCOc1ccc(NC(=O)CCCOc2cc(=O)n(C)c3ccccc23)cc1	-12.4%
Cc1ccc2nc(-c3ccc(C)o3)c(Nc3ccc4c(c3)OCCO4)n2c1	-4.2%
COc1ccc(NC(=O)c2oc3ccccc3c2NC(=O)Cc2coc3ccc(C)cc23)cc1	-0.0141%
O=C(NCCc1ccccc1)c1ccc(Cn2c(SCc3ccccc3F)nc3cccnc32)cc1	6.24%
CCCN1CN=C(NS(=O)(=O)c2ccc(NC(C)=O)cc2)NC1	12.5%
CCc1ccc(NC(=O)CSc2nc(-c3cccc(OC)c3)nc3c2Cc2c(CO)cnc(C)c2O3)cc1	14.4%
CC(Oc1ccccc1)C(=O)Nc1ccccc1C(=O)OCc1cc(=O)n2nc(C(C)C)sc2n1 (configuration not stated)	5.84%
CCCc1cc(=O)[nH]c(Nc2cc(C)cc(C)c2)n1	-11.9%
Cc1c(C(=O)N(C)C)sc2c1c(=O)n(-c1ccc(Cl)c(Cl)c1)c(=O)n2CC(=O)N1CCCCC1C (configuration not stated)	15.7%
COc1cc(C(=O)N(Cc2ccc(N(C)C)cc2)CC2CCCO2)cc(OC)c1OC (configuration not stated)	-0.354%
CCCC12CN3CC(CCC)(CN(C1)C3c1ccc(OC(C)C)cc1)C2=O (configuration not stated)	0.105%
COc1ccc(-c2noc(-c3ccc(N4CCN(c5ccccc5OC)CC4)c([N+](=O)[O-])c3)n2)cc1	-11.8%
CC(=O)c1cccc(NC(=O)CC2SC(N3CCCCC3)=NC2=O)c1 (configuration not stated)	active: 45.3%
CCOc1ccc(NC(=O)CSc2nnc(CNC(=O)C34CC5CC(CC(C5)C3)C4)n2CC)cc1	11.6%
CCOC(=O)c1ccccc1NC(=O)Nc1cc2c(cc1N1CCCC1)n(C)c(=O)n2C	13.8%
